Experimental data: the supplement of paper PMC12217912
Some of the results follow. The full chains were built here from the parent and the listed change. Inactive controls read about 0.05.

B1: TEV protease; numbered along this chain (parent)
chain: MGESLFKGPRDYNPISSSICHLTNESDGHTTSLYGIGFGPFIITNKHLFRRNNGTLVVQSLHGVFKVKDTTTLQQHLVDGRDMIIIRMPKDFPPFPQKLKFREPQREERICLVTTNFQTKSMSSMVSDTSCTFPSGDGIFWKHWIQTKDGQCGSPLVSTRDGFIVGIHSASNFTNTNNYFTSVPKNFMELLTNQEAQQWVSGWRLNADSVLWGGHKVFMVKPEEPFQPVKEATQL

Variants of: B1
Experiment: raw area under fraction-flipped curve 0-4 h after induction (AUC4h, not background-subtracted), DNA-recorder readout of cleavage of the substrate (dimensionless); higher = more cleavage of the substrate by the protease variant
Settings: temperature: 34 °C; time window: 0-4 h after rhamnose induction
Experimental: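 In vivo DNA recorder in E. coli TOP10(DE3) ΔrhaA at 34 °C. Each TEVp single-site mutant (parent TEVp 0) is paired with a single-site variant of the 7-mer TEVs (canonical ENLYFQ|S). The substrate sits between flexible linkers in a Bxb1-sfGFP-TEVs-SsrA fusion, so cleavage stabilises Bxb1 and speeds flipping of a recombination array, read by NGS. The value is the raw area under the fraction-flipped curve over 0-4 h after rhamnose induction (AUC4h), with ≥20 reads per time point. It is not background-subtracted; inactive controls average about 0.047.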
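Further: Bxb1 expression induced with 0.2% (w/v) L-rhamnose at OD600 near 0.5, cultures sampled hourly, flipped fraction per protease–substrate barcode pair counted by paired-end Illumina sequencing.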

Variant	area with substrate EALYFQS	area with substrate EELYFQS	area with substrate EKLYFQS	area with substrate ELLYFQS	area with substrate EQLYFQS	area with substrate ERLYFQS	area with substrate ESLYFQS	area with substrate EVLYFQS	area with substrate EWLYFQS	area with substrate EYLYFQS	area with substrate ECLYFQS	area with substrate EDLYFQS	area with substrate EFLYFQS	area with substrate EGLYFQS	area with substrate EHLYFQS	area with substrate EILYFQS	area with substrate EPLYFQS	area with substrate ETLYFQS	area with substrate EMLYFQS
T119I	0.0174	0.128	0.142	0.0987	0.136	0.0751	0.0928	0.104	0.067	0.115									
S121Q	0.145	0.114	0.116	0.0908	0.122	0.104	0.101	0.0945		0.104	0.11	0.112	0.107	0.119	0.12	0.103	0.104	0.102	
T23G	0.0887	0.0666	0.0817	0.0611	0.0832	0.0812	0.0738	0.0762		0.0766	0.0913	0.0963	0.063	0.0783	0.0792	0.0761	0.0592	0.0805	0.0797
P96R	0.115		0.0992	0.0746	0.14		0.102	0.0935								0.118			
E224D	0.125	0.0895		0.086		0.103	0.123			0.105	0.0982			0.102		0.116	0.142	0.101	0.122
T176G	0.0669				0.0674		0.0583	0.0838	0.0804		0.0674	0.0704		0.0467		0.0406			0.0754
P96A	0.121	0.115		0.0939		0.104	0.108	0.0904	0.118		0.107				0.151	0.111			0.118
H215Q	0.0761	0.0744	0.0626	0.0894	0.0717	0.065	0.0659			0.0531	0.0829	0.0838	0.0709	0.0576	0.0586	0.0681			
A232E	0.12						0.104	0.122	0.0837		0.123		0.0867		0.0915	0.0815	0.108	0.135	0.0945
T132D	0.0624	0.0634	0.0631	0.056	0.0501	0.0652	0.0594	0.0563	0.054		0.0509	0.056	0.0614	0.0555	0.0587	0.0384	0.0607	0.0593	0.0473
H76C	0.167	0.12	0.139	0.0936	0.0984	0.115	0.114	0.0968	0.13	0.0848	0.12	0.098	0.0937	0.106	0.122	0.109	0.121	0.123	0.133
L112G	0.0675	0.0728	0.074	0.0511	0.0758		0.0641	0.032	0.0436			0.0824		0.0696	0.0689	0.0664		0.0616	
L112M	0.105	0.138		0.101	0.0908				0.0979		0.104	0.132	0.0833		0.121	0.0908	0.135		
